Assay results published in the antibiotic and cytotoxicity screens of Wong et al. (2023).
This is one part of the list.

Columns and labels:
HSkMC = human skeletal muscle cells; assay: cytotoxicity call (relative viability < 0.9); conditions: 10 µM
HepG2 = assay: cytotoxicity call (relative viability < 0.9); conditions: 10 µM
S. aureus RN4220 = assay: growth inhibition call (relative growth <= 0.2); conditions: 50 µM

Compound | cytotoxicity call (HSkMC) | cytotoxicity call (HepG2) | growth inhibition call (S. aureus RN4220)
COc1ccc(CN2CCN(C(c3ccc(F)cc3)c3ccc(F)cc3)CC2)c(OC)c1OC.Cl | inactive | active | inactive
O=C(Cc1ccncc1)Nc1ccc2c(c1)[C@@H]1C[C@@H](CC(=O)N3CCc4ccccc4C3)O[C@@H](CO)[C@@H]1O2 | inactive | inactive | inactive
Cc1noc(C)c1NC(=O)Nc1ccc2c(c1)C(=O)N([C@@H](C)CO)C[C@@H](C)[C@H](CN(C)C(=O)c1ccccc1)OCCCC[C@@H](C)O2 | inactive | inactive | inactive
CC(=O)N(C)C[C@H]1Oc2ncc(C#C[C@H](C)O)cc2C(=O)N([C@@H](C)CO)C[C@@H]1C | inactive | inactive | inactive
COCC#Cc1cnc2c(c1)C(=O)N([C@H](C)CO)C[C@@H](C)[C@@H](CN(C)S(=O)(=O)c1cccc(OC)c1)O2 | inactive | inactive | inactive
C[C@@H]1CCCCO[C@@H](CN(C)S(=O)(=O)c2ccc(F)cc2)[C@H](C)CN([C@H](C)CO)C(=O)c2cc(NC(=O)Nc3cccc4ccccc34)ccc2O1 | inactive | inactive | inactive
O=C(CCCCCNC(=O)OCCCOc1ccc(C2=N[C@@]3(Cc4ccccc4N(CCS(=O)(=O)c4ccccc4)C3=O)[C@H](c3ccccc3)O2)cc1)NO | inactive | inactive | inactive
C[C@@H]1CN([C@@H](C)CO)C(=O)Cc2cc(NS(=O)(=O)c3cn(C)cn3)ccc2O[C@@H]1CN(C)C(=O)Nc1ccc(F)cc1 | inactive | inactive | inactive
O=C(O)c1ccccc1-c1ccco1 | inactive | inactive | inactive
